Source: the supplement of paper PMC11417369
The list shows a part of the results.

These sequences were tested on PfAP2-HC AP2 domain (GST-tagged) (assay: gcPBM binding intensity (ln(normalized median fluorescence intensity)); higher = stronger DNA binding).
In short: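 Alexa488 anti-GST antibody, scanned at 488 nm, detected GST-tagged P. falciparum DNA-binding domains that had been expressed in E. coli and incubated for 1 h on an Agilent 4 × 180k array. The array carried primer-extended double-stranded 36-bp intergenic genomic probes and negative controls. Binding intensity is the highest Masliner-normalised natural-log median intensity across replicate spots of either orientation of each probe.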

Sequence | gcPBM binding intensity (ln)
TAACTTTTTTTTTTTTTTTTTTAACTTTTATGTAAT [GTGCAC_negctrl_site156] | 9.45
TTATTTATCAAAAAATGTACAAAAATATATAAACAA [XGTACX_site940] | 9.6
TTTGTCAACCAAAATTGTACAAATGTATTCCCAATA [XGTACX_site1350] | 9.43
TTTTAAAAAAGAAAAAAAAAGGATCAGAGAAATATT [GTGCAC_negctrl_site79] | 9.52
TTATATTTATTTAATGAACACACGATATATTATTTT [CACACA_site1601] | 9.65
AAAAAAATTAATAATGTGCACTTTTTAGTATTTTTA [GTGCAC_site9744] | 9.45
AAATGTTAATTAAATGCATGTACAAAAGGAGCGAAT [TGCATGCA_site942] | 10.2
TTGTAGATATTTATATGTACGAATTTATAAATATAG [XGTACX_site3611] | 9.3
CTCAAAAAATATGAACGTACAAAATAAGTAATGACA [XGTACX_site590] | 9.71
TTTTTTTTTTTTTTTGCACACATTTTAATTATTTTT [CACACA_site341] | 9.71
AAAAAAAAAAAAAAAGGTACACAAAACGGTATTATT [XGTACX_site7064] | 9.63
ATACATATTAATATGTGTACACATTTTTATTTTTTT [XGTACX_site930] | 9.88
AACTCATAGGAGTGTGCACACAAAAAATTAAAAAAA [CACACA_site8996] | 10.3
TTTTTTTTTTTTGTCACACATATGGAATATATCTAT [CACACA_site5899] | 9.62
ATGTCCTATATTAGTACACACATGAAAATATAAATA [CACACA_site7497] | 9.66
ACAATTAATCAAACAAGTACAAAATATATCCCTATT [XGTACX_site6223] | 9.68
TCCTATGATGATGATAGTACATATGAGTTCAAAAAA [XGTACX_site273] | 9.44
TTATTGTTATTTGTTTGTACATAATATAATATATTA [XGTACX_site6477] | 9.64
AACCATACACAAATAAACATAGACACAGATACCTCC [CACACA_negctrl_site598] | 10.6
AATATAAAAAAAAACAAAAAAAAAATTTTGGTTCAC [CACACA_negctrl_site1290] | 9.56
AATAATAAATAAATGTGTACTTAAAAATATTATATT [XGTACX_site3005] | 9.72
TTGTATCATATATTATGTACATATTGATTTATTACC [XGTACX_site12] | 9.59

Sequence | gcPBM binding intensity (ln)
CAAAGTATTATGATTACACACATGTGCTTTTTTCTT [CACACA_site163] | 10
TTTTTAAAATATTTAACACACAATTATAATGCATAA [CACACA_site3932] | 9.46
AGTAGTCTGGAGAAATGTACACAGTATCTGGTAGCT [XGTACX_site4871] | 9.62
AATATGTGTATAGATAGTACACATGCTGATAATATA [XGTACX_site5941] | 9.84
AAAATTTTGGAACGTGCACACATATGTAATATATAT [CACACA_site9004] | 10.3
ATATTTTTTTTTTTATGTACTTATTTATAATTATTT [XGTACX_site5279] | 10.1
AGCTTGTAACAGTTTACACACTAATATTTATAAATT [CACACA_site6024] | 9.77
CTTATAAGAATACTAGTGCACATAATTTAACGAAAA | 9.57
TTTTTTTTTTTTTTTTCACACATTGTACTTTTTTAT [CACACA_site5193] | 9.54
TAAGTCATATAAATGTGTACATAAAAAAAAAAAATG [XGTACX_site1645] | 9.66
ATCATTTGCATACGCACACACACATAAAAAGAAAAA [CACACA_site355] | 10.9
TCTATCAAATTTGAAGGTACACATTTGAGATAATTA [XGTACX_site3797] | 9.41
TACTTATTGTGATACTTATATTATTTTATGATTAAA [XGTACX_negctrl_site353] | 9.48
TATATTTATTTATATACACACATAATAAAAAATATA [CACACA_site6527] | 9.62
TATTAATGATAAAAAAGTACATTATTATATGATATT [XGTACX_site4235] | 9.55
AAAAAAATAAATAAATGTACATATATAAAACATTGT [XGTACX_site2136] | 9.94
ATATAATTATATTCCATACACACATATATTTAAAGG [CACACA_site2958] | 9.77
AAACGAGAACATAATAAATACATAAATAAATAAATA [GTGCAC_negctrl_site433] | 9.72
TTTTTTATTCCATAATATAATATGTTTTGAAATTTG [GTGCAC_negctrl_site440] | 9.51
ATATACATATCAATGTAATATTATATACTTTTTTAG [CACACA_negctrl_site816] | 9.5
TAGTTCTTTTAATTTAGTATTATACAATATTGGAAA [CACACA_negctrl_site521] | 9.32
AATATATTAAATATTACACACATACATTTAGTGTAA [CACACA_site5145] | 9.74

Sequence | gcPBM binding intensity (ln)
TATATATTAAACTTTGCACACATAATTTAACTACAA [CACACA_site3440] | 9.84
TTATTTATGAAGTATACACACAATATATATATATAT [CACACA_site1248] | 9.76
TTAATCCACAGACACACACACACAAAATAAAATACA [CACACA_site244] | 10.5
TTAGATATTATTATATGTACATATTATATGTATTAT [XGTACX_site3836] | 9.74
TAGTTAATATGATTATGTACATATATATATTAATTT [XGTACX_site1750] | 9.52
ATTTTTTTTTTTTTTTTTTTTTTTTTTTTTGTTGTT [CACACA_negctrl_site1313] | 9.16
TGTATATGAAAAAATAGTACTCATATAAATATCTTT [XGTACX_site6542] | 9.53
ATAATATATTTATAAACACACAAAAAAAGTTATATA [CACACA_site6831] | 9.81
TTTATTTTATTCACTATCATAAGCAAAACTTAAACA [GTGCAC_negctrl_site287] | 9.21
ATTAATAATATTACATGTACATAATATAATTGAAAA [XGTACX_site5084] | 9.67
AAAATAATAAAAAAAAAAAAAAAAAAAAAAAAGTAT [TGCATGCA_negctrl_site193] | 9.61
ATATATCTTCTTTGCACACTTAAAGGGAAGTGATAA [CACACA_site342] | 9.51
AAAAAAATAATAAAATGTACAAATAAACACATAAAG [XGTACX_site5102] | 10.1
AAATAAAATAAAACAACACACACGAATGTATAAATA [CACACA_site885] | 10.3
AATAAATATAAATACACACCCATATAAATATAAATA [CACACA_site7264] | 10.1
ACAAAGATAAAACATAAAATATATCAAACATAAAAT [XGTACX_negctrl_site198] | 9.75
AAAAAAAATACATGTTGTACGGTACAAATATAAAGT [XGTACX_site2863] | 10.1
CGCGCCCAGAAACACACACACACACCGATATATATA [CACACA_site5250] | 10.4
TAATGTATCTAAAATTGTACAAATATAAATCTAAAT [XGTACX_site1197] | 9.59
TATATACACGCACATACACACAAATAAAAAAACACC [CACACA_site7578] | 10.2
GTATTATTCTATAGAAGTACAGTATATTATTATTTA [XGTACX_site5073] | 9.59
TGTGTTGTAATTAAAACACACATGAAAAAATTAAAA [CACACA_site51] | 9.78

Sequence | gcPBM binding intensity (ln)
TAAGGATTGGTATAAAGTACAGGAGTAAATTGAAAA [XGTACX_site8525] | 9.88
TACATATTGAATAAGACACACATATATATATATATA [CACACA_site1878] | 9.79
CATACACATATATATTGTACACATATATGTATGTAT [XGTACX_site4030] | 9.74
ATATTTTTTTTTTATTGTACCCTCATAAAAGAAAAG [XGTACX_site773] | 9.2
TACAACAAGTAATGGTGTACATTATATTATGTAATA [XGTACX_site1194] | 9.76
TATAACAATTTTTATGCATGCGACTATAATATTTTT [TGCATGCA_site508] | 9.75
GGAATAAATAATATTATACACACGTATATTATTATA [CACACA_site2435] | 9.72
AAGCTTTCATAAAGATGTACTTTTTAAAAATAATCT [XGTACX_site5725] | 9.33
TGTGCATAATTTTGTGCACACCACGCTAATAATTTT [CACACA_site2915] | 9.72
ATAAATATATGATAAAGTACATATTTATATAATAAA [XGTACX_site7263] | 9.6
TGATATTATATATATACACACATGTATGTATATATA [CACACA_site1364] | 9.72
ATATTTATTTATAATTGTACTAATAATATATTTTAA [XGTACX_site587] | 9.51
ATGTATCTATATATATGTACACATATTTTAATTAAA [XGTACX_site3673] | 9.79
AAAATAAAAAATTAATGTACTTAGAATTGTCACTAA [XGTACX_site1346] | 9.64
TTTTTCATGTTTATTAGTACATATATTAAGAATGGA [XGTACX_site3493] | 9.35
ACCTATTTATAATAGTGTACGTACAAATTTGTTTAC [XGTACX_site8176] | 10.1
TTTTGTAAATATATATGTACATATATATATATATAT [XGTACX_site5803] | 9.65
AATTTGTTGAAACACACACACACATACATATATATA [CACACA_site2287] | 11.3
TAAAATAATAAACAGAAGAAATCATTCATATAAAAA [XGTACX_negctrl_site502] | 9.59
AAAGAAAATAACAAAATTTTGAAAACATCACATTCG [CACACA_negctrl_site89] | 9.99
AAATTAAAGGCATAAAAGAAAATATTTAATAAAAAA [CACACA_negctrl_site1689] | 9.59
ATATATAATAAACAGGTGCATTGTTTTATTTTGTAT | 9.78
